Measured values from BigSolDB 2.1.

O=C(c1ccccc1)c1ccccc1
solubility (mole fraction)
Details | 278.15 K | 283.15 K | 288.15 K | 293.15 K | 298.15 K | 303.15 K | 308.15 K | 313.15 K | 318.15 K
in acetone | 0.31 | 0.35 | 0.381 | 0.427 | 0.491 | 0.562 | 0.669 | 0.755 | 0.906
in acetonitrile | 0.301 | 0.33 | 0.368 | 0.419 | 0.475 | 0.543 | 0.633 | 0.722 | 0.848
in ethanol | 0.0316 | 0.0425 | 0.0615 | 0.0917 | 0.139 | 0.208 | 0.29 | 0.391 | 0.573
in ethyl acetate | 0.281 | 0.328 | 0.358 | 0.399 | 0.455 | 0.533 | 0.607 | 0.692 | 0.828
in isobutanol | 0.135 | 0.161 | 0.198 | 0.244 | 0.295 | 0.378 | 0.453 | 0.597 | 0.786
in isopropanol | 0.0614 | 0.0756 | 0.105 | 0.155 | 0.213 | 0.284 | 0.391 | 0.502 | 0.672
in methanol | 0.0208 | 0.0262 | 0.0392 | 0.0542 | 0.0867 | 0.13 | 0.208 | 0.302 | 0.455
in methyl acetate | 0.206 | 0.234 | 0.278 | 0.334 | 0.392 | 0.455 | 0.518 | 0.613 | 0.719
in n-butanol | 0.131 | 0.159 | 0.191 | 0.236 | 0.285 | 0.354 | 0.433 | 0.577 | 0.766
in n-octanol | 0.139 | 0.169 | 0.209 | 0.256 | 0.305 | 0.384 | 0.483 | 0.617 | 0.806
in n-propanol | 0.0775 | 0.0958 | 0.123 | 0.164 | 0.219 | 0.313 | 0.419 | 0.538 | 0.708
